Reference: the supplement of paper PMC11417369
The list shows a part of the results.

System: PfAP2-HC AP2 domain (GST-tagged)
Experiment: gcPBM binding intensity (ln(normalized median fluorescence intensity)); higher = stronger DNA binding
Outline: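 GST-tagged P. falciparum DNA-binding domains produced in E. coli were incubated for 1 h on an Agilent 4 × 180k array of primer-extended double-stranded 36-bp intergenic genomic probes with negative controls. Binding intensity is the highest Masliner-normalised natural-log median intensity across replicate spots of either probe orientation, with bound protein detected by Alexa488 anti-GST antibody at 488 nm.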

Row | Sequence | gcPBM binding intensity (ln)
1 | AATTATTCTATATATTGTACATGTTTGTTTTTTTTT [XGTACX_site3130] | 10.1
2 | ATATATAAATATATATGTACACACATATACATGTTG [XGTACX_site6653] | 10.1
3 | TGTTTAATCACATGTTTGCACTTTCCTTTTGTAAAT [GTGCAC_site9893] | 9.88
4 | TCTTAAAATCGGAAATGAAATAAAGTTTACAATATG [TGCATGCA_negctrl_site553] | 9.49
5 | TGATTCTGTCATGGTGCACACCAGAACCATTATAAA [CACACA_site1965] | 9.52
6 | ATGTTTAATTTTTTTTTGTCCCTATAGAAGTGTCAA [CACACA_negctrl_site1103] | 9.54
7 | AATGAATAAATAAACACACACACATATATAAATATG [CACACA_site6160] | 10.5
8 | AAAACAAACAGACACACACACATATATATATATATA [CACACA_site3655] | 10.8
9 | TTTGAGTGCACATACACACAGACATACATTTAAATA [CACACA_site3403] | 10
10 | ATAACCTAATAATACACACACATGAATATATAGAAT [CACACA_site963] | 10.2
11 | TTTAAAATTTTTTTTTTTTTTTTTTTTTTTTTTTAT [TGCATGCA_negctrl_site213] | 9.22
12 | ATATAAATATGTTCTGCACACAAATAAGTGTTTGAA [CACACA_site9291] | 9.79
13 | CATATATATATATGTACACACATTAATAAAAAAAAA [CACACA_site3230] | 9.83
14 | GTTTAACTGTTTTATACACACAATGTATACAATAAA [CACACA_site2959] | 9.73
15 | AAAAAAAAAAAAAAAAGTACGTATCAAAGCATCAAA [XGTACX_site880] | 9.64
16 | AATCTGATCTTTTAAAGTACACAAAAAAAAAAAAAA [XGTACX_site115] | 9.19
17 | AGGTTATAAATAAATACACACATACAAAAATATGAC [CACACA_site4773] | 10
18 | AATGAACACCTAAAATGTACGTACAAATATATTTTA [XGTACX_site7067] | 9.76
19 | CCAAAATACATTAAACGTACATGTCCTAATAAGATA [XGTACX_site21] | 9.6
20 | TTCTTATATATATACACACACAAAATATCTACAATG [CACACA_site736] | 10.1
21 | TTGTTTTTATAAATATTATTACAATGAAAAAAAAAA [TGCATGCA_negctrl_site185] | 9.32
22 | TAATATATATTATTATGTACATATATTGATTCCTTG [XGTACX_site6830] | 9.68

Row | Sequence | gcPBM binding intensity (ln)
23 | TATTTATTAATATGTACACACATCAACCATATTAAC [CACACA_site7001] | 9.9
24 | AAAAGGTGGAAAAATGCATGCAGGCTATTCTATATA [TGCATGCA_site1034] | 9.68
25 | TTCCACCAATATATATGTACTTATAATATATATATA [XGTACX_site8700] | 9.59
26 | AATTACATATAATACTGTACGCTAATAAGAAAAAAA [XGTACX_site7413] | 9.67
27 | AAAAAACACGGACACACACACATATACATACATACA [CACACA_site5470] | 10.6
28 | AATATAAATAATGTTAAACACACATACCGATATATA [CACACA_site8869] | 9.87
29 | ATTTATAGAGCTATATGTACATATATATATATTATT [XGTACX_site3704] | 10
30 | AACGCTTATTAGTTGTTGTATATGTGTTCACATATT [CACACA_negctrl_site379] | 9.7
31 | ATATAAATAAAGAAATATATATATATATATATATAT [GTGCAC_negctrl_site668] | 9.43
32 | ATATATATGTATATAACATGCAACATTTAATAATAA [TGCATGCA_site1018] | 9.85
33 | ATAAAAGATTTATACATACACACATATTATATTCAC [CACACA_site3714] | 10.3
34 | TTTTTTTTTTTTTTTTAACACACATATATATATTTT [CACACA_site8585] | 9.61
35 | GATCTATTGAGTGATACATGCAGGAAAATTAAAAAC [TGCATGCA_site729] | 9.59
36 | TTTTTTTTTTTATGCTCACACATTAATTTTTATACA [CACACA_site4527] | 9.68
37 | TATGTATGTATGTATGTATGCATGTCTAACACCTAA [TGCATGCA_site360] | 9.65
38 | AAAAAGAAAAAAGAAAGTACAAATATACACATTTTT [XGTACX_site3343] | 9.53
39 | TTTTTATTATAAGGTCGTACAATTGTAATTATTGTA [XGTACX_site1413] | 9.55
40 | ACACATGTATTTGGTGCATGTTGTTAAAAAAATATT [TGCATGCA_site795] | 9.7
41 | TCATAGCTAGGATAACGTACAGAAAAGTGAAAAATT [XGTACX_site3322] | 9.84
42 | TTTTTTTTTTGTTGTTGTACTCTTATATTTTTATAT [XGTACX_site6178] | 9.78
43 | ATTCTAGTAATATATGTATATTTATATATGTATGTG [XGTACX_negctrl_site419] | 9.64
44 | ATATATACCTATAACACACACATATTTATATTTATA [CACACA_site7257] | 10.1

Row | Sequence | gcPBM binding intensity (ln)
45 | TAATAAAAAAAGTGCACACACATAATATATATATAT [CACACA_site3340] | 10.4
46 | TATAAATCAATATGTACACACATATACATGTTGAAT [CACACA_site7460] | 9.85
47 | CATATAATATATCAATGTACATATATATTTTATAAA [XGTACX_site5901] | 9.53
48 | TTAGCAACTATTACTACACACATTTTTATATAATTT [CACACA_site1372] | 9.95
49 | ATTGTCAAAACACGCACACACATATACATAATAACA [CACACA_site1742] | 11.1
50 | ATTATATACATATATATTGTATATACTATACATATG [XGTACX_negctrl_site545] | 9.7
51 | TCCTTGTTTGGTTTTTTTTTTTCTTCTTTTTTTTTT [CACACA_negctrl_site1355] | 9.68
52 | ACACATACACATTAGGTGCACATAATTCAATATTAC [GTGCAC_site9862] | 9.9
53 | TATGAAACGATATATGTGCACATGAGGGAATATAGA [GTGCAC_site9611] | 9.97
54 | TTAAATGTTATATATTGTACATATAATATATGTATT [XGTACX_site1492] | 9.66
55 | TCTTATTTAAAAATAGCACACATTATATATATATAT [CACACA_site8916] | 9.79
56 | ATATATATATAAAGGAGTACATACATTAAAAAAAAA [XGTACX_site1095] | 9.79
57 | AAAAAACATACATACACACACATAAATATATATATT [CACACA_site2699] | 10.4
58 | TTTTGAGAATATATGGGTACAAATAAATAAAAATAT [XGTACX_site1933] | 9.63
59 | TTTTCTATTTAATTGGTGCACTGATATATACACATA [GTGCAC_site9533] | 9.71
60 | TTATGTTATATATACACACACAAAAGAAAAAAAAAA [CACACA_site2987] | 10.4
61 | AGGTTAAAAATAAATACACACATTTGATGTCTGTAT [CACACA_site6596] | 9.82
62 | ATATAACATATTAATAATATATTTATAATATGTTTA [GTGCAC_negctrl_site168] | 9.39
63 | TCTTATAACAAAAAAAAATAAAAAATAAAACTATAT [GTGCAC_negctrl_site11] | 9.43
64 | CATATAAATAGACACACACACACATATAAATAAATA [CACACA_site7156] | 11.1
65 | AAATTTAAATAATGTGCGCATCTTAATATATATAAG [GTGCAC_site9890] | 9.7
66 | AAATAATATTGAAAAGTGCATATTTTTGTTGATATA | 9.58

Row | Sequence | gcPBM binding intensity (ln)
67 | TTTTAAAAAAAAAAAATAAATAAATAAGATATTATC [CACACA_negctrl_site1791] | 9.36
68 | TTTTAAAACTACATTGGTACACAATAAAAAAAAAAA [XGTACX_site2793] | 9.49
69 | AAAAAAAAAAAAAAAGCACACATATAAATATGAATA [CACACA_site8391] | 9.65
70 | TCATATATATTATACACACACATATATAAATATATA [CACACA_site967] | 9.89
71 | AGGTTGAATATATATTTGTGATTATATTATTTTATT [CACACA_negctrl_site778] | 9.74
72 | TATATATATATATAATGTACAAACTCCTTTATATAT [XGTACX_site4545] | 9.61
73 | CCATGTCAAACATTTGCACACAAAAAAATAAAAATT [CACACA_site4546] | 9.84
74 | TCATTCAAAAAAAATCAACACACAGTTACATAGCTC [CACACA_site8700] | 9.79
75 | GTTTTTTTTATATATTGTACAAATAATATATTATAT [XGTACX_site29] | 9.8
76 | TTATTTAAACAAATCACACACAAATATAAATACATA [CACACA_site5158] | 10.3
77 | AACACCAAACTAAATGTACACACATACATAAATATA [CACACA_site8298] | 10.1
78 | AATATAAACACAAACACACACATATATATATATATA [CACACA_site4307] | 10.1
79 | TAAAATTATGTAATAACACACATATACAATACATAT [CACACA_site1236] | 9.94
80 | GAAAATTCATAAAAATGTACTTATTATATTATTTAT [XGTACX_site2169] | 9.54
81 | AAAGGTTTGCGTTGTGTGCACAAAATAAATATATAA | 10.1
82 | TTATGAATATTGATGTATAAAAAAATATATATGTTA [XGTACX_negctrl_site390] | 9.47
83 | GATATATAACTTTTAACACACAAAAAAAAAAAAAAT [CACACA_site7653] | 9.86
84 | TTTTCAAAAATATACACACACATAAATATATGTATA [CACACA_site777] | 9.8
85 | AAAAAAATTTTAAAATGTACAAATTTTAATATATAT [XGTACX_site7628] | 9.36
86 | TTTTTTATTTAAAGTAGTACTTTTTAGAAAACAAAA [XGTACX_site6759] | 9.05
87 | ATTCTAAATATGTATATACACACTTTTAATATTCAT [CACACA_site4118] | 9.89
88 | TTTATGAAACAGTGCACACATAAAAATAAATACATA [CACACA_site5631] | 9.88
